Measurements reported in patent US20230235090A1 (HARBOUR BIOMED US, published 2023).

T1: human B7-H4 (human, UniProt Q7Z7D3 25-282)
T1 construct: whole, on cells; also called VTCN1; SK-BR-3 cell line highly expressing B7-H4
T1 sequence (looked up): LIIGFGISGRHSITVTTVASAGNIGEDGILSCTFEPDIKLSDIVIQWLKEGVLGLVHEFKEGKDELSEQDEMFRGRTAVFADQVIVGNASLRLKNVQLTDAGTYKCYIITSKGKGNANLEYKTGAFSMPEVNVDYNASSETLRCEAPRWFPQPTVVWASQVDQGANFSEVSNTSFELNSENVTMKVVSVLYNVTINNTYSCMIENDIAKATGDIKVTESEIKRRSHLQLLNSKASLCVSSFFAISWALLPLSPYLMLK


What was measured:
human B7-H4 = target: T1, human B7-H4; experiment: FACS, SK-BR-3 cells [H]
human 4-1BB = target: T2, human 4-1BB (human, UniProt Q07011 24-255); experiment: FACS, CHO-K1/h4-1BB cells [G]
T2 construct: whole, on cells; also called CD137; TNFRSF9

Sequence of human 4-1BB (Q07011 24-255): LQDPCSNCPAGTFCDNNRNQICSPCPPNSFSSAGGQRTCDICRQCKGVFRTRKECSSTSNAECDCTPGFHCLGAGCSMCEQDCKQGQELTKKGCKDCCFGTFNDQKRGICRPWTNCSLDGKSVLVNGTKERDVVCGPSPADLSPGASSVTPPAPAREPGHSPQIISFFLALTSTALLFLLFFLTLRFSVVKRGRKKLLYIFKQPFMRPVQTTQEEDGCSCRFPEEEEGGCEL

EC50 (human B7-H4) | Maximum MFI (human B7-H4) | EC50 (human 4-1BB) | Maximum MFI (human 4-1BB) | Binder
1.43 nM | 53300 MFI | 0.432 nM | 99200 MFI | PR004357 (bispecific antibody, human IgG1, kappa, L234A L235A, IgG-VH tetravalent symmetric; PR002410 IgG x PR001840 VH; IgG1 (L234A, L235A, P329G)) light: EIVMTQSPASLSVSPGERATLSCRASQSVSSNLAWYQQKPGQAPRLLIYGASTRATGIPARVSGGGSGTEFTLTISSLQSEDFAVYYCQQYKNWPFTFGPGTKLEIKRTVAAPSVFIFPPSDEQLKSGTASVVCLLNNFYPREAKVQWKVDNALQSGNSQESVTEQDSKDSTYSLSSTLTLSKADYEKHKVYACEVTHQGLSSPVTKSFNRGEC heavy: QVQLVQSGAEVKKPGSSMRVSCKASEDTFSSYAISWVRQAPGQGLEWMGGTAPIFGTTNYAQKFQGRVTITADKSTSTAYMELSSLRSEDTAVYYCARGGPYFDYWGQGTLVTVSSASTKGPSVFPLAPSSKSTSGGTAALGCLVKDYFPEPVTVSWNSGALTSGVHTFPAVLQSSGLYSLSSVVTVPSSSLGTQTYICNVNHKPSNTKVDKKVEPKSCDKTHTCPPCPAPEAAGGPSVFLFPPKPKDTLMISRTPEVTCVVVDVSHEDPEVKFNWYVDGVEVHNAKTKPREEQYNSTYRVVSVLTVLHQDWLNGKEYKCKVSNKALGAPIEKTISKAKGQPREPQVYTLPPSREEMTKNQVSLTCLVKGFYPSDIAVEWESNGQPENNYKTTPPVLDSDGSFFLYSKLTVDKSRWQQGNVFSCSVMHEALHNHYTQKSLSLSPGEPKSSDKTHTPPPPPRTEVQLVESGGGLVQPGGSLRLSCAASGFTFSSYWMHWVRQAPGKGLVWVSRINSDGSSTSYADSVQGRFTISRDNAKNTLYLQMNSLRAEDTAVYYCVRKGSSSYYHYSIEDDWGQGTLVTVSS
2.91 nM | 38500 MFI | 0.519 nM | 50200 MFI | PR004358 (bispecific antibody, human IgG1, kappa, L234A L235A, IgG-VH-VH hexavalent symmetric; PR002410 IgG x PR001840 VH; IgG1 (L234A, L235A, P329G)) light: EIVMTQSPASLSVSPGERATLSCRASQSVSSNLAWYQQKPGQAPRLLIYGASTRATGIPARVSGGGSGTEFTLTISSLQSEDFAVYYCQQYKNWPFTFGPGTKLEIKRTVAAPSVFIFPPSDEQLKSGTASVVCLLNNFYPREAKVQWKVDNALQSGNSQESVTEQDSKDSTYSLSSTLTLSKADYEKHKVYACEVTHQGLSSPVTKSFNRGEC heavy: QVQLVQSGAEVKKPGSSMRVSCKASEDTFSSYAISWVRQAPGQGLEWMGGTAPIFGTTNYAQKFQGRVTITADKSTSTAYMELSSLRSEDTAVYYCARGGPYFDYWGQGTLVTVSSASTKGPSVFPLAPSSKSTSGGTAALGCLVKDYFPEPVTVSWNSGALTSGVHTFPAVLQSSGLYSLSSVVTVPSSSLGTQTYICNVNHKPSNTKVDKKVEPKSCDKTHTCPPCPAPEAAGGPSVFLFPPKPKDTLMISRTPEVTCVVVDVSHEDPEVKFNWYVDGVEVHNAKTKPREEQYNSTYRVVSVLTVLHQDWLNGKEYKCKVSNKALGAPIEKTISKAKGQPREPQVYTLPPSREEMTKNQVSLTCLVKGFYPSDIAVEWESNGQPENNYKTTPPVLDSDGSFFLYSKLTVDKSRWQQGNVFSCSVMHEALHNHYTQKSLSLSPGEPKSSDKTHTPPPPPRTEVQLVESGGGLVQPGGSLRLSCAASGFTFSSYWMHWVRQAPGKGLVWVSRINSDGSSTSYADSVQGRFTISRDNAKNTLYLQMNSLRAEDTAVYYCVRKGSSSYYHYSIEDDWGQGTLVTVSSGGGGSEVQLVESGGGLVQPGGSLRLSCAASGFTFSSYWMHWVRQAPGKGLVWVSRINSDGSSTSYADSVQGRFTISRDNAKNTLYLQMNSLRAEDTAVYYCVRKGSSSYYHYSIEDDWGQGTLVTVSS
4.05 nM | 37500 MFI | 0.89 nM | 133000 MFI | PR004359 (bispecific antibody, human IgG1, kappa, IgG-VH tetravalent symmetric; PR002410 IgG x PR001838 VH; IgG1 (L234A, L235A)) light: EIVMTQSPASLSVSPGERATLSCRASQSVSSNLAWYQQKPGQAPRLLIYGASTRATGIPARVSGGGSGTEFTLTISSLQSEDFAVYYCQQYKNWPFTFGPGTKLEIKRTVAAPSVFIFPPSDEQLKSGTASVVCLLNNFYPREAKVQWKVDNALQSGNSQESVTEQDSKDSTYSLSSTLTLSKADYEKHKVYACEVTHQGLSSPVTKSFNRGEC heavy: QVQLVQSGAEVKKPGSSMRVSCKASEDTFSSYAISWVRQAPGQGLEWMGGTAPIFGTTNYAQKFQGRVTITADKSTSTAYMELSSLRSEDTAVYYCARGGPYFDYWGQGTLVTVSSASTKGPSVFPLAPSSKSTSGGTAALGCLVKDYFPEPVTVSWNSGALTSGVHTFPAVLQSSGLYSLSSVVTVPSSSLGTQTYICNVNHKPSNTKVDKKV[letters of human IgG1 Fc with changes not shown]EPKSSDKTHTPPPPPRTEVQLLESGGGLVQPGGSLRLSCAASGFTFSNYAMSWFRQPPETGLKWVSSIDGSGGDTYYADSVKGRFTISRDNSKNTLYLQMNSLRAEDTAVYYCAKEGSHGTDDSHYDVDVWGQGTTVTVSS
